# Experimental data from article PMC9911399, “Two distinct binding modes provide the RNA-binding protein RbFox with extraordinary sequence specificity”.
# Where a chain is given by its changes, count along the chain named. Some of the results follow.
# B1: CCAUCUG (DNA:RNA)
# RNA: GGGAGACCGGAAUUCAGAUUGUCCCCAUCUGUUAAAUCCCGUCGUAGCCACCA
# DNA 1: CAATCTGAATTCCGGTCTCCC
# DNA 2: TGGTGGCTACGACGGGATT
# B2: GCGACAU (DNA:RNA)
# RNA: B1 RNA with C25G, A27G, U28A, U30A, G31U
# DNA 1: CAATCTGAATTCCGGTCTCCC
# DNA 2: TGGTGGCTACGACGGGATT
# B3: GCAGCAG (DNA:RNA)
# RNA: B1 RNA with C25G, U28G, U30A
# DNA 1: CAATCTGAATTCCGGTCTCCC
# DNA 2: TGGTGGCTACGACGGGATT
# B4: GUAGUCC (DNA:RNA)
# RNA: B1 RNA with C25G, C26U, U28G, C29U, U30C, G31C
# DNA 1: CAATCTGAATTCCGGTCTCCC
# DNA 2: TGGTGGCTACGACGGGATT
# B5: GAGAAUU (DNA:RNA)
# RNA: B1 RNA with C25G, C26A, A27G, U28A, C29A, G31U
# DNA 1: CAATCTGAATTCCGGTCTCCC
# DNA 2: TGGTGGCTACGACGGGATT
# B6: ACCAGGC (DNA:RNA)
# RNA: B1 RNA with C25A, A27C, U28A, C29G, U30G, G31C
# DNA 1: CAATCTGAATTCCGGTCTCCC
# DNA 2: TGGTGGCTACGACGGGATT
# B7: GUCUUAA (DNA:RNA)
# RNA: B1 RNA with C25G, C26U, A27C, C29U, U30A, G31A
# DNA 1: CAATCTGAATTCCGGTCTCCC
# DNA 2: TGGTGGCTACGACGGGATT
# B8: AGGCCGU (DNA:RNA)
# RNA: B1 RNA with C25A, C26G, A27G, U28C, U30G, G31U
# DNA 1: CAATCTGAATTCCGGTCTCCC
# DNA 2: TGGTGGCTACGACGGGATT
# B9: UCGUCAG (DNA:RNA)
# RNA: B1 RNA with C25U, A27G, U30A
# DNA 1: CAATCTGAATTCCGGTCTCCC
# DNA 2: TGGTGGCTACGACGGGATT
# B10: ACGCGUU (DNA:RNA)
# RNA: B1 RNA with C25A, A27G, U28C, C29G, G31U
# DNA 1: CAATCTGAATTCCGGTCTCCC
# DNA 2: TGGTGGCTACGACGGGATT
# B11: ACUAAAG (DNA:RNA)
# RNA: B1 RNA with C25A, A27U, U28A, C29A, U30A
# DNA 1: CAATCTGAATTCCGGTCTCCC
# DNA 2: TGGTGGCTACGACGGGATT
# B12: AUGACCA (DNA:RNA)
# RNA: B1 RNA with C25A, C26U, A27G, U28A, U30C, G31A
# DNA 1: CAATCTGAATTCCGGTCTCCC
# DNA 2: TGGTGGCTACGACGGGATT
# B13: AUUCAGA (DNA:RNA)
# RNA: GGGAGACCGGAAUUCAGAUUGUCCAUUCAGAUUAAAUCCCGUCGUAGCCACCA
# DNA 1: CAATCTGAATTCCGGTCTCCC
# DNA 2: TGGTGGCTACGACGGGATT
# B14: CUGGGGG (DNA:RNA)
# RNA: B13 RNA with A25C, U27G, C28G, A29G, A31G
# DNA 1: CAATCTGAATTCCGGTCTCCC
# DNA 2: TGGTGGCTACGACGGGATT
# B15: GAUCUUC (DNA:RNA)
# RNA: B13 RNA with A25G, U26A, A29U, G30U, A31C
# DNA 1: CAATCTGAATTCCGGTCTCCC
# DNA 2: TGGTGGCTACGACGGGATT
# B16: UGAUUCA (DNA:RNA)
# RNA: B1 RNA with C25U, C26G, C29U, U30C, G31A
# DNA 1: CAATCTGAATTCCGGTCTCCC
# DNA 2: TGGTGGCTACGACGGGATT
# B17: GGCUCUU (DNA:RNA)
# RNA: B1 RNA with C25G, C26G, A27C, G31U
# DNA 1: CAATCTGAATTCCGGTCTCCC
# DNA 2: TGGTGGCTACGACGGGATT
# B18: CGAUGGA (DNA:RNA)
# RNA: B1 RNA with C26G, C29G, U30G, G31A
# DNA 1: CAATCTGAATTCCGGTCTCCC
# DNA 2: TGGTGGCTACGACGGGATT
# B19: ACGACGC (DNA:RNA)
# RNA: B13 RNA with U26C, U27G, C28A, A29C, A31C
# DNA 1: CAATCTGAATTCCGGTCTCCC
# DNA 2: TGGTGGCTACGACGGGATT
# B20: GCGUGUU (DNA:RNA)
# RNA: B1 RNA with C25G, A27G, C29G, G31U
# DNA 1: CAATCTGAATTCCGGTCTCCC
# DNA 2: TGGTGGCTACGACGGGATT
# Molecular target: T1, RBFOX1 RRM RbFoxmut (Fox-RRM*) (Homo sapiens, UniProt Q9NWB1 109-208, R118D;E147R;N151S;E152T)
# T1 sequence: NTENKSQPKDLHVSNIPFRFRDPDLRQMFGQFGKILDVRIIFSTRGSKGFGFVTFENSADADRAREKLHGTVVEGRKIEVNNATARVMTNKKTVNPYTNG
# Assay: EMSA; HiTS-Eq, 1 nM pool, 10 min; buffer printed only for the single-RNA assays: 10 mM Tris pH 7.5, 150 mM NaCl, 3.4 mM EDTA, 0.001% NP-40, 30 C
# Details: tags: His6 N-terminal (pET28a); label: 5' 32P
# Outline: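 A pool of RNA with 7 randomized nucleotides, 5′-radiolabelled and with DNA-annealed flanks, was equilibrated at 1 nM for 10 min in 50 µL with purified RbFox RRM, wild type or mutant, across increasing protein concentrations. Free RNA was separated by 8% native PAGE, excised, reverse-transcribed, barcoded by PCR and sequenced. Relative association constants were obtained from read-count changes of each RNA species versus the control reaction and normalised to the cognate motif.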
row,Binder,binding signal
1,B1,0.0778 KA relative to UGCAUGU
2,B2,0.0653 KA relative to UGCAUGU
3,B3,0.0883 KA relative to UGCAUGU
4,B4,0.0984 KA relative to UGCAUGU
5,B5,0.0953 KA relative to UGCAUGU
6,B6,0.0949 KA relative to UGCAUGU
7,B7,0.0967 KA relative to UGCAUGU
8,B8,0.0905 KA relative to UGCAUGU
9,B9,0.102 KA relative to UGCAUGU
10,B10,0.133 KA relative to UGCAUGU
11,B11,0.12 KA relative to UGCAUGU
12,B12,0.0786 KA relative to UGCAUGU
13,B13,0.0812 KA relative to UGCAUGU
14,B14,0.0824 KA relative to UGCAUGU
15,B15,0.0558 KA relative to UGCAUGU
16,B16,0.126 KA relative to UGCAUGU
17,B17,0.0791 KA relative to UGCAUGU
18,B18,0.0893 KA relative to UGCAUGU
19,B19,0.104 KA relative to UGCAUGU
20,B20,0.156 KA relative to UGCAUGU
